Laboratory results as given in patent publication US20100087406A1, “INDUCTION OF INNATE IMMUNITY BY VITAMIN D3 AND ITS ANALOGS” (CEDARS-SINAI MEDICAL CENTER, priority 2004, published 2010).

Experiments:
[1] = tested on: human CAMP promoter; assay: CAMP promoter-firefly luciferase reporter assay in U937 cells; conditions: U937, 1×10^−7M, 18 h, dual luciferase
[2] = tested on: CRAMP; assay: CRAMP in BM Mφ of VDR-deficient or wild type mice (QRT-PCR); assay type: cell-based; conditions: for decrease of CRAMP: BM Mφ
Procedure: Primers against murine CAMP/CRAMP (forward, SEQ ID NO.: 7 and reverse, SEQ ID NO.: 8) (Table 3) were used at 200 nM per reaction.
The relative fold change between samples was determined using data normalized for 18S expression. Samples were analyzed in triplicate.

[3] = tested on: CRAMP; assay: CRAMP expression in bone marrow of treated BNX mice (Northern blot); conditions: intraperitoneal, 0.05 μg/mouse every two days for 6 weeks
[4] = tested on: CAMP; assay: Induction of CAMP mRNA expression in U937 cells (QRT-PCR, RT-PCR, Northern blot); assay type: cell-based, human; conditions: U937, 1×10^−7 M, measured at 0, 1, 3, 5 days; listed as Vitamin D3
[5] = tested on: CRAMP; assay: CRAMP induction in murine cell line Wehi3B; assay type: cell-based; conditions: data not shown
Text: (§1) To elucidate further the role of the VDR in regulating CAMP gene expression, the expression of the murine CAMP/CRAMP gene was examined in RNA from untreated bone marrow cells from a VDR-deficient mouse and its wild type littermate (FIG. 14A, left panel). Bone marrow RNAs from C/EBPε-deficient and wild type mice were included as controls (FIG. 14A, left panel). As expected, the C/EBPε-deficient bone marrow lacked expression of CRAMP (Verbeek, W. et al., “Myeloid transcription factor C/EBPepsilon is involved in the positive regulation of lactoferrin gene expression in neutrophils,” Blood, Vol. 94, pp. 3141-3150 (1999)). […]. […].

[6] = tested on: CRAMP; assay: CRAMP induction in murine cell line NIH3T3; assay type: cell-based; conditions: NIH3T3, data not shown
Text: as §1

[7] = tested on: CRAMP; assay: CRAMP induction in murine myeloid cell line 32Dc13 (Northern blot); conditions: 32Dc13, 1×10^−7 M, 24 and 48 h

## C=C1/C(=C\C=C2/CCC[C@]3(C)[C@@H]([C@H](C)CCCC(C)(C)O)CC[C@@H]23)C[C@@H](O)C[C@@H]1O [1,25(OH)2D3, 1,25-dihydroxyvitamin D3]
[1]
  activation of deletion mutant pXP2-CAMP(ΔHindIII)-Luc: not activated
  activation of deletion mutant pXP2-CAMP(ΔSmaI)-Luc: not activated
  activation of the full-length promoter construct pXP2-CAMP-Luc: 2-2.5 fold
[2]; BM Mφ from VDR-deficient or wild type mice, 24 or 48 h
  induction of CRAMP: CRAMP induction was not observed
[2]; 24 h post-treatment (FIG. 14C)
  decrease of CRAMP: approximately 2 fold
[2]; 48 h (FIG. 14C)
  decrease of CRAMP: ~5 fold
[3]
  CRAMP expression in bone marrow compared with a vehicle-treated mouse: did not significantly alter CRAMP expression
[4]
  time at which induction of the CAMP gene occurred: 1 days
[5]
  induction of CRAMP: did not observe induction of CRAMP
[6]
  induction of CRAMP: did not observe induction of CRAMP
[7]
  induction of CRAMP: did not observe induction of CRAMP
